In PubChem BioAssay AID938 (National Center for Advancing Translational Sciences (NCATS), 2007):
Hit rate of the full screen: of about 73,000 compounds, about 1,800 (2.5%) were called active. This list was built around the results that the source calls inconclusive (neither active nor inactive); the mix of calls is not that of the screen. Calls follow the shape of the dose curve; as a rule, active = well fitted activation curve with a large enough effect; inconclusive = small, poorly fitted or top-dose-only effect; inactive = no such curve, though single readings can be large or run the other way. No potency is given beside an inconclusive call; the fits are too rough.

Test: qHTS Assay for Agonists of the Thyroid Stimulating Hormone Receptor: Activators of Intracellular cAMP Concentrations in Parental HEK 293; also: nearly all actives have a fitted effect of over 55% in size; as to activation: % of control where 0% means no effect
Conditions: parental HEK293 CNG cAMP sensor, membrane potential fluorescence; activation: at 57.1 µM (top of the series) unless noted
Summary of the method: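 Parental HEK 293 cells stably expressing a cAMP-gated CNG channel were loaded with membrane potential dye containing 100 uM RO 20-1724 for 60 min. Compound added for 30 min; depolarization read as fluorescence intensity at 590 nm.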
Potency is read from the fitted curve at half-maximal effect; tags tell the direction and shape of the fitted curve.

SMILES | activation | Potency
CC[C@H](C(=O)[C@H](C)[C@H](O)[C@H](C)CCc1ccc(C)c(O)c1C(=O)O)[C@H]1O[C@](CC)([C@@H]2CC[C@@](O)(CC)[C@H](C)O2)C[C@H]1C | inactive: -5.51% [at 25.6 µM] | –
COC(=O)[C@@]1(Cc2ccc(F)cc2)[C@H]2c3cc(C(=O)N(C)C)n(Cc4ccc(C(F)(F)F)nc4)c3C[C@H]2CN1C(=O)c1ccccc1 | – | inconclusive [activator, partial curve]
COc1ccc2c(c1)C(C)=CC(C)(C)N2C(=O)CSc1nnc(-c2ccc(C)cc2)o1 | – | inconclusive [activator, partial curve]
CC1CCCCC1NC(=O)c1ccc(S(=O)(=O)NCc2ccco2)cc1 (stereo unspecified) | – | inconclusive [activator, full curve]
CC(=O)c1nc2ccccc2n1S(=O)(=O)c1ccc(Cl)cc1 | inactive: 15% | –
Cc1cc2oc(=O)cc(CN3CCCCC3)c2cc1C(C)C | – | inconclusive [activator, single point]
O=C(Nc1ccc(N2CCCC2)c(Cl)c1)c1ccco1 | inactive: -5.87% [at 11.4 µM] | –
Cn1cnc2cc(NC(=O)c3ccco3)ccc21 | inactive: -0.0938% | –
COc1ccccc1CNc1ncnc2ccc(-c3cccnc3)cc12 | inactive: 24.9% | –
O=C(CCCCn1c(=O)c2ccccc2n(Cc2ccc(F)cc2Cl)c1=O)NCc1ccco1 | – | inconclusive [activator, partial curve]
CCOC(=O)c1c(NC(=O)C(F)(OC)C(F)(F)F)sc(C(=O)N2CCCCC2)c1C (stereo unspecified) | – | inconclusive [activator, single point]
O=C(N/N=C1/C[C@@H](O)[C@@H](O)[C@@H]2[C@@H]3C(=O)N(C4CCCCC4)C(=O)[C@H]3CC[C@@H]12)OCc1ccccc1 | inactive: -2.75% [at 11.4 µM] | –
COc1ccc(-c2nn3c(-c4cccc(C)c4)nnc3s2)cc1OC | – | inconclusive [activator, single point]
CC1CCN(c2oc(-c3ccccc3F)nc2C#N)CC1 | – | inconclusive [activator, partial curve]
Cc1cc(Nc2ccc(F)cc2F)n2ncnc2n1 | inactive: -2.23% | –
CCn1c(=O)cc(SCC(=O)N2CCN(Cc3ccc4c(c3)OCO4)CC2)c2ccccc21 | – | inconclusive [activator, single point]
O=C(O)C[n+]1ccccc1 | inactive: 3.73% [at 11.4 µM] | –
O=C1CCC(C(=O)OCc2cc(Cl)ccc2OC(F)F)N1 (stereo unspecified) | – | inconclusive [activator, single point]
COC(=O)COc1ccc(S(=O)(=O)NCc2ccco2)cc1Cl | inactive: 0.0479% | –
c1csc(-c2nnc3ccccn23)c1 | inactive: 3.56% | –
Cc1ccc(S(=O)(=O)Nc2ccccc2C=O)cc1 | inactive: -16% [at 11.4 µM] | –
O=C(O)/C=C1\CCCc2ccccc2[C@H]1O | inactive: 11.3% | –
CCCC(=O)NCCc1cc2ccc(OC)cc2[nH]c1=O | – | inconclusive [activator, single point]

SMILES | activation | Potency
CC(c1ccco1)N(C(=O)COc1ccc(Cl)cc1)c1ccccn1 (stereo unspecified) | inactive: 9.53% | –
O=C(Oc1ccccc1C(=O)Oc1ccccc1)c1ccco1 | – | inconclusive [activator, partial curve]
Cc1ccnc(N2CCC(C(=O)Nc3cccc(C(F)(F)F)c3)CC2)n1 | – | active: 20 µM
Cc1csc(SCC(=O)c2cc(C)n(Cc3cccs3)c2C)n1 | – | active: 15.8 µM
CC(C)[C@H](NC(=O)OC(C)(C)C)[C@@H](O)CC(=O)OC(C)(C)C | inactive: -3.47% [at 11.4 µM] | –
Cc1cccc(Cn2c(=O)n(CCCC(=O)NCc3ccco3)c(=O)c3ccccc32)c1 | – | inconclusive [activator, partial curve]
COC(=O)[C@@]1(Cc2ccccc2)[C@H]2c3cc(C(=O)N(C)C)n(Cc4ccc(OC)c(OC)c4)c3C[C@H]2CN1C(=O)c1ccccc1 | – | inconclusive [activator, full curve]
COc1ccccc1-c1nc(C#N)c(N2CCN(c3ccccc3)CC2)o1 | – | inconclusive [activator, partial curve]
O=C(NCc1ccco1)C(c1cccs1)N(C(=O)Cc1cccs1)c1ccccc1 (stereo unspecified) | – | active: 12.6 µM
CCOc1ccc(N=Cc2c(O)cc(C)oc2=O)cc1 | – | inconclusive [activator, single point]
CCOC(=O)C1=C(c2ccccc2)NC(SCC(=O)Nc2cccc(C)c2)=C(C#N)C1c1ccco1 (stereo unspecified) | inactive: 10.4% | –
O=C(CSc1nc(-c2ccccc2)nc2c1CCCC2)N1CCOCC1 | inactive: 23% | –
Cc1oc(-c2ccc(Cl)cc2)nc1CN1CCCC(C(=O)N2CCN(C(=O)c3ccco3)CC2)C1 (stereo unspecified) | – | inconclusive [activator, full curve]
Cn1c(-c2ccc(N)cc2)nc2ccccc21 | inactive: 0.781% | –
O=C(CCNc1ccc(F)c(Cl)c1)c1ccco1 | – | inconclusive [activator, single point]
COc1ccccc1CCC(=O)Nc1nc2ccccc2[nH]1 | – | inconclusive [activator, single point]
CCOc1cc(S(=O)(=O)NCC2OCCc3ccccc32)c(OCC)cc1-n1cnnn1 (stereo unspecified) | inactive: -12.6% | –
COc1ccc(OC)c(C(=O)COC(=O)c2ccccc2O)c1 | – | active: 25.1 µM
CCOc1ccc(N(C(C)C(=O)NC2CCCCCC2)S(C)(=O)=O)cc1 (stereo unspecified) | – | inconclusive [activator, partial curve]
COc1cccc(C(c2sc3ncnn3c2O)N2CC(C)OC(C)C2)c1 (stereo unspecified) | – | inconclusive [activator, single point]
O=C1c2cccc3c(N4CCCCC4)ccc(c23)C(=O)N1c1ccccn1 | – | inconclusive [activator, partial curve]
O=C1c2ccccc2C(=O)N1Cc1ccc2c(c1)OCO2 | – | inconclusive [activator, single point]
Fc1ccc(N2CCN(c3nc(-c4ccco4)cc(C(F)(F)F)n3)CC2)cc1 | – | inconclusive [activator, partial curve]
